# Laboratory results as given in the supplement of paper PMC12217912.
# Some of the results follow. Sequences were assembled here from the parent chain. Values near 0.05 are background.
# B1: TEV protease; numbered along this chain (parent)
# chain: MGESLFKGPRDYNPISSSICHLTNESDGHTTSLYGIGFGPFIITNKHLFRRNNGTLVVQSLHGVFKVKDTTTLQQHLVDGRDMIIIRMPKDFPPFPQKLKFREPQREERICLVTTNFQTKSMSSMVSDTSCTFPSGDGIFWKHWIQTKDGQCGSPLVSTRDGFIVGIHSASNFTNTNNYFTSVPKNFMELLTNQEAQQWVSGWRLNADSVLWGGHKVFMVKPEEPFQPVKEATQL
# Variants of: B1
# Experiment: raw area under fraction-flipped curve 0-4 h after induction (AUC4h, not background-subtracted), DNA-recorder readout of cleavage of the substrate (dimensionless); higher = more cleavage of the substrate by the protease variant
# Details: temperature: 34 °C; time window: 0-4 h after rhamnose induction
# Procedure: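 In vivo DNA recorder in E. coli TOP10(DE3) ΔrhaA at 34 °C. Each TEVp single-site mutant (parent TEVp 0) is paired with a single-site variant of the 7-mer TEVs (canonical ENLYFQ|S). The substrate sits between flexible linkers in a Bxb1-sfGFP-TEVs-SsrA fusion, so cleavage stabilises Bxb1 and speeds flipping of a recombination array, read by NGS. The value is the raw area under the fraction-flipped curve over 0-4 h after rhamnose induction (AUC4h), with ≥20 reads per time point. It is not background-subtracted; inactive controls average about 0.047.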
# 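Further: Bxb1 expression induced with 0.2% (w/v) L-rhamnose at OD600 near 0.5, cultures sampled hourly, flipped fraction per protease–substrate barcode pair counted by paired-end Illumina sequencing.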
Variant,area with substrate ENLYFAS,area with substrate ENLYFCS,area with substrate ENLYFES,area with substrate ENLYFFS,area with substrate ENLYFHS,area with substrate ENLYFIS,area with substrate ENLYFKS,area with substrate ENLYFLS,area with substrate ENLYFMS,area with substrate ENLYFPS,area with substrate ENLYFSS,area with substrate ENLYFTS,area with substrate ENLYFYS,area with substrate ENLYFNS,area with substrate ENLYFRS,area with substrate ENLYFDS,area with substrate ENLYFWS,area with substrate ENLYFGS,area with substrate ENLYFVS
W144A,0.0714,0.0917,0.0819,0.0829,0.0513,0.0609,0.0769,0.0683,0.0728,0.0662,0.0785,0.0325,0.0543,,,,,,
W144F,0.058,0.0613,,0.0785,0.064,0.0601,0.0869,,,0.0643,,,,0.0745,0.055,,,,
N52G,0.063,0.0474,0.0587,0.0336,0.0585,0.0564,0.048,,0.0596,0.0591,0.0605,0.0627,0.0636,0.0599,,0.0572,,,
P96W,0.0597,0.0744,0.0689,,0.0507,0.0425,0.0533,,0.0536,0.0227,0.0562,0.0539,,0.0514,0.0709,0.0621,0.0517,,
P96R,0.0701,,0.0643,,0.0622,,,0.0653,,0.0637,0.0886,,,0.069,0.049,,0.051,,
A207C,0.0671,0.0247,0.073,,0.0513,0.0711,0.075,,0.0756,0.0659,0.0346,0.0576,,0.0676,0.0379,0.0623,,0.0586,0.0716
M219A,0.0666,,0.0627,0.0672,0.0657,0.0577,,0.0622,0.0577,0.0637,,0.0642,0.0597,0.0559,,,0.0543,0.047,0.0714
W212E,0.0505,0.0539,0.0626,0.0711,0.0713,0.0602,0.0833,,,0.062,,0.054,0.0454,,,,,,
P184A,0.0528,0.0543,0.0526,0.065,0.0591,0.0556,0.0557,0.0537,0.0601,0.0322,,0.0541,0.0458,,0.0532,0.052,0.0527,,
P184Y,0.0452,0.0492,0.0591,,,0.0237,0.0348,,,0.0582,0.0665,0.0585,,0.0554,,,0.0611,0.0576,0.0058
G63W,0.0454,0.0531,0.0624,0.0563,0.0539,0.0448,0.0616,0.062,0.0666,0.092,,0.0543,0.0498,0.0535,0.0602,0.0444,0.0548,0.0418,
D208F,0.0622,0.0594,0.0574,0.066,0.0483,0.0571,0.0457,0.0587,0.0685,0.0529,0.0694,0.0642,0.0565,,0.0598,0.052,0.0518,0.0609,0.0635
S18T,0.0563,0.0523,0.0773,0.0596,0.0645,0.053,0.0708,,0.0604,0.048,,,0.0469,0.0646,,,,,
